# The other results are listed elsewhere or left out.
# Assays:
# Assay in all cases: glycan array binding signal (z-score within array); higher = stronger binding
# Conditions in all cases: glycan notation: IUPAC condensed, linker removed
# [1] = biological target: Gal(b1-4)GlcNAc(b1-3)Gal(b1-4)GlcNAc(b1-3)Gal(b1-4)GlcNAc
# Summary of the method: (§1)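 The binding signal is a Z-score computed within each array and averaged over linkers. Arrays of the same protein sequence at different concentrations or buffers were also averaged together. Data originate from 3228 arrays in the Consortium for Functional Glycomics database, kept only where the protein sequence was available.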
# [2] = biological target: Gal(b1-4)GlcNAc(b1-3)Gal(b1-4)[Fuc(a1-3)]GlcNAc(b1-3)Gal(b1-4)[Fuc(a1-3)]GlcNAc
# Summary of the method: as §1
# [3] = biological target: Gal(b1-4)GlcNAc(b1-3)GalNAc
# Summary of the method: as §1
# [4] = biological target: Gal(b1-4)GlcNAc(b1-3)[Gal(b1-4)GlcNAc(b1-6)]Gal(b1-4)GlcNAc
# Summary of the method: as §1
# [5] = biological target: Gal(b1-4)GlcNAc(b1-3)[GlcNAc(b1-6)]Gal(b1-4)GlcNAc
# Summary of the method: as §1
# [6] = biological target: Gal(b1-4)GlcNAc(b1-6)Gal(b1-4)GlcNAc
# Summary of the method: as §1
# [7] = biological target: Gal(b1-4)GlcNAc(b1-6)Gal(b1-4)GlcNAc(b1-6)GalNAc
# Summary of the method: as §1
# [8] = biological target: Gal(b1-4)GlcNAc(b1-6)GalNAc
# Summary of the method: as §1
# [9] = biological target: Gal(b1-4)GlcNAc(b1-6)[Gal(b1-3)]GalNAc
# Summary of the method: as §1
# [10] = biological target: Gal3S(b1-3)GalNAc
# Summary of the method: as §1
# [11] = biological target: Gal3S(b1-3)GlcNAc
# Summary of the method: as §1
# [12] = biological target: Gal3S(b1-3)[Fuc(a1-4)]GlcNAc
# Summary of the method: as §1
# [13] = biological target: Gal3S(b1-4)Glc
# Summary of the method: as §1
# [14] = biological target: Gal3S(b1-4)Glc6S
# Summary of the method: as §1
# [15] = biological target: Gal3S(b1-4)GlcNAc
# Summary of the method: as §1
# [16] = biological target: Gal3S(b1-4)GlcNAc6S
# Summary of the method: as §1
# [17] = biological target: Gal3S(b1-4)[Fuc(a1-3)]Glc
# Summary of the method: as §1
# [18] = biological target: Gal3S4S(b1-4)GlcNAc
# Summary of the method: as §1
# [19] = biological target: Gal3S6S(b1-4)GlcNAc
# Summary of the method: as §1
# [20] = biological target: Gal3S6S(b1-4)GlcNAc6S
# Summary of the method: as §1
# [21] = biological target: Gal4S(b1-4)GlcNAc
# Summary of the method: as §1
# [22] = biological target: Gal4S6S(b1-4)GlcNAc
# Summary of the method: as §1
# [23] = biological target: Gal6S(b1-4)Glc
# Summary of the method: as §1
# [24] = biological target: Gal6S(b1-4)Glc6S
# Summary of the method: as §1
# [25] = biological target: Gal6S(b1-4)GlcNAc
# Summary of the method: as §1
# [26] = biological target: Gal6S(b1-4)GlcNAc6S
# Summary of the method: as §1
# [27] = biological target: GalNAc(a1-3)Gal
# Summary of the method: as §1
# [28] = biological target: GalNAc(a1-3)GalNAc
# Summary of the method: as §1
# [29] = biological target: GalNAc(b1-3)Gal
# Summary of the method: as §1
# [30] = biological target: GalNAc(b1-3)Gal(a1-4)Gal(b1-4)GlcNAc
# Summary of the method: as §1
# [31] = biological target: GalNAc(b1-3)GalNAc
# Summary of the method: as §1
# [32] = biological target: GalNAc(b1-4)GlcNAc
# Summary of the method: as §1
# [33] = biological target: Glc(a1-4)Glc
# Summary of the method: as §1
# [34] = biological target: Glc(a1-6)Glc(a1-6)Glc
# Summary of the method: as §1
# [35] = biological target: Glc(b1-4)Glc
# Summary of the method: as §1
# [36] = biological target: Glc(b1-6)Glc
# Summary of the method: as §1
# [37] = biological target: GlcA(b1-3)Gal
# Summary of the method: as §1
# [38] = biological target: GlcA(b1-3)GlcNAc
# Summary of the method: as §1
# [39] = biological target: GlcA(b1-6)Gal
# Summary of the method: as §1
# [40] = biological target: GlcNAc(a1-3)Gal(b1-4)GlcNAc
# Summary of the method: as §1
# [41] = biological target: GlcNAc(a1-6)Gal(b1-4)GlcNAc
# Summary of the method: as §1
# [42] = biological target: GlcNAc(b1-2)Gal(b1-3)GalNAc
# Summary of the method: as §1
# [43] = biological target: GlcNAc(b1-2)Man(a1-3)[GlcNAc(b1-2)Man(a1-6)]Man(b1-4)GlcNAc(b1-4)GlcNAc
# Summary of the method: as §1
# [44] = biological target: GlcNAc(b1-3)Gal
# Summary of the method: as §1
# [45] = biological target: GlcNAc(b1-3)Gal(b1-3)GalNAc
# Summary of the method: as §1
binder,measurement,setting,value
MD-2 (Homo sapiens) (protein) MLPFLFFSTLFSSIFTEAQKQYWVCNSSDASISYTYCDKMQYPISINVNPCIELKGSKGLLHIFYIPRRDLKQLYFNLYITVNTMNLPKRKEVICRGSDDDYSFCRALKGETVNTTISFSFKGIKFSKGKYKCVVEAISGSPEEMLFCLEFVILHQPNSN,glycan array binding signal (z-score),[1],0.742
same,glycan array binding signal (z-score),[2],-0.215
same,glycan array binding signal (z-score),[3],-0.391
same,glycan array binding signal (z-score),[4],-0.336
same,glycan array binding signal (z-score),[5],-0.262
same,glycan array binding signal (z-score),[6],-0.09
same,glycan array binding signal (z-score),[7],-0.093
same,glycan array binding signal (z-score),[8],-0.458
same,glycan array binding signal (z-score),[9],-0.355
same,glycan array binding signal (z-score),[10],-0.242
same,glycan array binding signal (z-score),[11],-0.194
same,glycan array binding signal (z-score),[12],-0.177
same,glycan array binding signal (z-score),[13],-0.187
same,glycan array binding signal (z-score),[14],2.59
same,glycan array binding signal (z-score),[15],-0.103
same,glycan array binding signal (z-score),[16],1.81
same,glycan array binding signal (z-score),[17],-0.223
same,glycan array binding signal (z-score),[18],3.89
same,glycan array binding signal (z-score),[19],0.262
same,glycan array binding signal (z-score),[20],6.6
same,glycan array binding signal (z-score),[21],-0.043
same,glycan array binding signal (z-score),[22],1.34
same,glycan array binding signal (z-score),[23],-0.063
same,glycan array binding signal (z-score),[24],6.38
same,glycan array binding signal (z-score),[25],-0.156
same,glycan array binding signal (z-score),[26],3.27
same,glycan array binding signal (z-score),[27],-0.444
same,glycan array binding signal (z-score),[28],-0.345
same,glycan array binding signal (z-score),[29],-0.354
same,glycan array binding signal (z-score),[30],-0.373
same,glycan array binding signal (z-score),[31],-0.429
same,glycan array binding signal (z-score),[32],-0.336
same,glycan array binding signal (z-score),[33],-0.356
same,glycan array binding signal (z-score),[34],-0.181
same,glycan array binding signal (z-score),[35],-0.07
same,glycan array binding signal (z-score),[36],-0.2
same,glycan array binding signal (z-score),[37],-0.096
same,glycan array binding signal (z-score),[38],-0.264
same,glycan array binding signal (z-score),[39],0.126
same,glycan array binding signal (z-score),[40],-0.273
same,glycan array binding signal (z-score),[41],-0.163
same,glycan array binding signal (z-score),[42],-0.155
same,glycan array binding signal (z-score),[43],-0.316
same,glycan array binding signal (z-score),[44],-0.322
same,glycan array binding signal (z-score),[45],-0.326
